Reference: PubChem BioAssay AID2147 (National Center for Advancing Translational Sciences (NCATS), 2009)
Several values for one entry are separate records, joined by “and”; a condition that tells them apart may be missing. Equal entries are not always repeated. Among all 230,000 compounds or so, about 3,600 (1.6%) were called active. This list was built around the results that the source calls inconclusive (neither active nor inactive); the mix of calls is not that of the screen. The call rests on the fitted dose curve; in most records, active means well fitted inhibition curve with a large enough effect (not every such curve was filed as active); inconclusive means small, poorly fitted or top-dose-only effect, or another doubt; inactive means no such curve, though single readings can be large or run the other way. A potency beside an inconclusive call is a rough fit, not a confirmed value.

Target: Lysine-specific demethylase 4E (Homo sapiens) (UniProt B2RXH2)
Test: qHTS Assay for Inhibitors of Human Jumonji Domain Containing 2E (JMJD2E)
Conditions: JMJD2E catalytic domain, FDH-coupled NADH fluorescence (FDH is formaldehyde dehydrogenase); series mostly up to 57.1 µM; activity change, negative = inhibition: at the top concentration
Further: nearly all actives have a fitted effect of over 50% in size.
Potency means the concentration at half of the fitted maximal effect; tags describe the fitted curve by direction and shape.
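Wherever activity change, negative = inhibition is given: 0% = wells with enzyme and -100% = buffer wells without enzyme.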

Chain of UniProt B2RXH2 (B2RXH2 whole entry, looked up, the tested form may be a part): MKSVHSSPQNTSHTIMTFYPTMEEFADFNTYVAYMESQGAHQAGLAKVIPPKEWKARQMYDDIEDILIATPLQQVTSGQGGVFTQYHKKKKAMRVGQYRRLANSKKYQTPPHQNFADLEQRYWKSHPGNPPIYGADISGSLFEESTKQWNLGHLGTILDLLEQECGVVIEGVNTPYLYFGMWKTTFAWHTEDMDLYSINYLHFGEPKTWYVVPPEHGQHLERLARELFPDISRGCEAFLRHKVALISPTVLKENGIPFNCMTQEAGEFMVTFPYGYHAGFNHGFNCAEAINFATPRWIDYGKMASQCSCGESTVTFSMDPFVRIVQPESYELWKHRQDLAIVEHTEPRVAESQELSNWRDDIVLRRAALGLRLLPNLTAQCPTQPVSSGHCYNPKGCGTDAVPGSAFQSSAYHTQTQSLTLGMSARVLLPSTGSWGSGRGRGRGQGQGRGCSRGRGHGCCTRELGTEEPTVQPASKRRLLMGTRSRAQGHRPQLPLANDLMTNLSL

SMILES	Potency	activity change, negative = inhibition
O=C(CN1CCOCC1)N1CCN(c2ccc3ccccc3n2)CC1	inconclusive: 31.6 µM [inhibitor, partial curve]	–
CCOC(=O)Cc1c(C)nc2c(-c3ccccc3)c(C)[nH]n2c1=O	inconclusive: 20 µM [inhibitor, partial curve]	–
CCCN1C(=O)c2cc(C(=O)Nc3cccc(C(C)=O)c3)ccc2C1Nc1cccc(C(C)=O)c1 (stereo not given)	inconclusive: 35.5 µM [inhibitor, single point]	–
O=[N+]([O-])c1ccc(Sc2ccccn2)nc1	inconclusive: 39.8 µM [inhibitor, single point]	–
O=C(CSc1nnc(CCCN2C(=O)c3cccc4cccc(c34)C2=O)n1-c1ccccc1)NCCCN1CCOCC1	inconclusive: 28.2 µM [inhibitor, single point]	–
O=C(Nc1nnc(-c2ccccc2Cl)o1)c1ccc(S(=O)(=O)N2CCCCCC2)cc1	–	inactive: -8.67%
O=C(CSc1ccc2c(c1)OCCO2)Nc1ccc(Br)cc1	inconclusive: 35.5 µM [inhibitor, single point]	–
CCCSc1nc2c(cnn2-c2ccc(F)cc2)c(=O)[nH]1	inconclusive: 39.8 µM [inhibitor, single point]	–
Cc1ccc(C(C(=O)NC2CCCC2)N(C(=O)c2csnn2)C2CCCC2)o1 (stereo not given)	–	inactive: 7.11%
CCCCCC(=O)Nc1ccc(N2CCN(C(=O)c3ccccc3)CC2)cc1	–	inactive: -0.451%
O=C(NCc1ccccn1)c1ccc2c(=O)n(CCc3ccccc3)c(=O)[nH]c2c1	inconclusive: 31.6 µM [inhibitor, single point]	–
Cc1nn(-c2ccccc2)c2[nH]c(=O)c(CNc3ccc(N4CCOCC4)cc3)cc12	inconclusive: 2.51 µM [inhibitor, partial curve, poor fit]	–
O=C(Cn1cnc2cc([N+](=O)[O-])ccc2c1=O)NC(=O)NCc1ccccc1	inconclusive: 25.1 µM [inhibitor, partial curve]	–
COc1cccc(-n2c(CNc3ccc(F)cc3)nnc2SCC(N)=O)c1	–	inactive: 2.98%
CCCCCC(=O)NNC(=S)NC(C)=O	inconclusive: 39.8 µM [inhibitor, single point]	–
Cc1cc(C)c2c(n1)nn1c(NCCCN(C)C)cc(C)nc21	inconclusive: 28.2 µM [inhibitor, partial curve]	–
O=C(Nc1cccc(-n2cnnn2)c1)c1ccco1	inconclusive: 12.6 µM [inhibitor, partial curve]	–
O=C(CC(=O)NC1CCCCC1)N/N=C/c1cccc2ccccc12	inconclusive: 35.5 µM [inhibitor, single point]	–
Cc1cccc(C)c1NC(=O)C(NC=O)c1ccc(Cl)cc1 (stereo not given)	–	inactive: 6.72%
O=C(CSc1ncnc2nc[nH]c12)c1ccc([N+](=O)[O-])cc1	–	inactive: -22.2%
COc1cccc(-c2nc(CS(=O)(=O)CC(=O)NC3CCCc4ccccc43)c(C)o2)c1 (stereo not given)	inconclusive: 22.4 µM [inhibitor, partial curve]	–
O=C(O)c1cc(=O)c2c(Cl)cc(Cl)cc2[nH]1	inactive	–
COc1ccc2c(/C=N/NS(=O)(=O)c3ccc(C)cc3)c[nH]c2c1	inconclusive: 31.6 µM [inhibitor, single point]	–
N#CC1=C(N)C(C#N)(C#N)[C@H](c2ccncc2)[C@H]2CN(C(=O)OCc3ccccc3)CC=C12	inconclusive: 28.2 µM [inhibitor, partial curve]	–

SMILES	Potency	activity change, negative = inhibition
CN(C)c1ccc(/C=N/NC(=O)COc2ccccc2)cc1	inconclusive: 31.6 µM [inhibitor, partial curve]	–
COc1ccc2nc(SCC(=O)Nc3cc(OC)c(OC)cc3C(=O)O)c(C)cc2c1	inconclusive: 25.1 µM [inhibitor, partial curve]	–
CCC(C)(C(=O)NC1CCCC1)N(Cc1cccs1)C(C)=O (stereo not given)	–	inactive: -1.52%
Cc1cc(N/N=C2/CCCc3ccccc32)nc2ccccc12	inconclusive: 25.1 µM [inhibitor, partial curve]	–
COc1ccc(O)c(C(=O)c2cc(SCC(=O)O)c3nc4sc5c(c4c(=O)n3c2)CCCC5)c1	inconclusive: 39.8 µM [inhibitor, single point]	–
Cc1nn(Cc2ccccc2)c2c1C(c1ccccc1)C(C#N)=C(N)O2 (stereo not given)	inconclusive: 39.8 µM [inhibitor, single point]	–
O=C(/C=C/c1ccccc1)c1cc(Br)ccc(=O)c1O	active: 12.6 µM	–
c1ccc(CNc2ccc3ccccc3n2)nc1	inconclusive: 22.4 µM [inhibitor, partial curve]	–
COCCNc1nnc(SC(C)C(=O)Nc2ccc(-c3nc4ccc(C)cc4s3)cc2)s1 (stereo not given)	inconclusive: 31.6 µM [inhibitor, partial curve]	–
O=C(c1csc2ccccc12)N1CCN(c2ccccn2)CC1	–	inactive: -4.38%
CCC(C)NCCCOc1cc(Cl)ccc1Cl (stereo not given)	inconclusive: 28.2 µM [inhibitor, single point]	–
O=c1c2ccccc2nc(N/N=C/c2c(O)ccc3ccccc23)n1O	active: 11.2 µM	–
Cc1cc(C)nc(N2CCCC(C(=O)Nc3ccc4nc(C)c(C)nc4c3)C2)n1 (stereo not given)	inconclusive: 39.8 µM [inhibitor, single point]	–
Nc1c(C(=O)NC2CCCC2)sc2nc(-c3cccs3)ccc12	inconclusive: 25.1 µM [inhibitor, partial curve]	–
O=[N+]([O-])c1cc(S(=O)(=O)Nc2ccccc2)ccc1-n1nnc2ccccc21	–	inactive: 0.163%
O=C(Cc1ccc(Cl)cc1)Nc1ccc(NC(=O)c2ccccc2)cc1	–	inactive: -4.28%
CC1(C)CC(=O)c2cc(OCC(=O)N3CCCCCC3)ccc2O1	inconclusive: 25.1 µM [inhibitor, partial curve]	–
CCN(CC)C(=S)Nc1ccc(OC(F)F)cc1	–	inactive: 9.9%
Cc1ccc2cc(C)c3nnc(SCc4ccc(C(=O)O)cc4)n3c2c1C	–	inactive: -10.2%
CCSc1nc2nn(-c3ccccc3)c(=O)c-2c2n1CCCCC2	–	inactive: -0.248%
CCn1c(=O)c(C(=O)NCc2ccccn2)c(O)c2ccccc21	inconclusive: 35.5 µM [inhibitor, single point]	–
COc1ccc2[nH]c(C(=O)O)c(NS(=O)(=O)c3ccc(OC)c(OC)c3)c2c1	inconclusive: 28.2 µM [inhibitor, partial curve]	–
COc1ccccc1/C=C/C(=O)OC(C)CN1CCOCC1 (stereo not given)	inconclusive: 31.6 µM [inhibitor, partial curve]	–
CCCCOc1ccc2c(C)cc(=O)oc2c1OCCCC	inconclusive: 35.5 µM [inhibitor, single point]	–

SMILES	Potency	activity change, negative = inhibition
O=C(CSc1nc2cc(Cl)ccc2o1)c1cccs1	–	inactive: 1.17%
CCOc1ccc(S(=O)(=O)NCCC(=O)NCc2ccco2)cc1	–	inactive: 2.05%
CCOC(=O)c1cnn2c(N)c(C#N)cnc12	inconclusive: 7.08 µM [inhibitor, single point]	–
Cc1cc(/C=C2\C(=O)NN(c3ccccc3)C2=O)c(C)n1-c1ccccc1O	–	inactive: -8.67%
Cc1cc(=O)n(CCCO)c(O)c1C#N	inconclusive: 25.1 µM [inhibitor, partial curve]	–
Cc1cc(F)ccc1S(=O)(=O)N1CCCOC1CNC(=O)C(=O)NCCc1c[nH]c2ccccc12 (stereo not given)	inconclusive: 31.6 µM [inhibitor, single point]	–
CC1=C(C(=O)OCC2CCCO2)C(c2ccncc2)C2=C(CC(C)(C)CC2=O)N1 (stereo not given)	inconclusive: 31.6 µM [inhibitor, partial curve]	–
CCCCN(Cc1ccccc1)C(=O)C1CCCN(S(=O)(=O)c2cnc[nH]2)C1 (stereo not given)	–	inactive: 15.9%
CC1(C)Cc2c(sc3c2c(=N)n(Cc2ccco2)c(=O)n3CC(=O)Nc2cccc(Cl)c2)CO1	inconclusive: 12.6 µM [inhibitor, partial curve]	–
CN(Cc1ccon1)Cc1cn(C)nc1-c1ccc2c(c1)OCCO2	inconclusive: 39.8 µM [inhibitor, single point]	–
N#C/C(=C\c1ccc(O)c(O)c1)C(=O)NCCCc1ccccc1	active: 7.94 µM and active: 17.8 µM and active: 3.16 µM	–
CCCOC(=O)C1=C(C)NC2=C(C(=O)C(C(=O)OC)C(C)C2)C1c1ccc(N(CC)CC)cc1 (stereo not given)	inconclusive: 8.91 µM [inhibitor, partial curve]	–
CCOC(=O)c1c(-c2ccc(OC)cc2)cn2ccccc12	inconclusive: 6.31 µM [inhibitor, single point]	–
CCN(Cc1ccccc1)c1ccc(/C=N/NS(=O)(=O)c2cccc([N+](=O)[O-])c2)cc1	inconclusive: 31.6 µM [inhibitor, single point]	–
O=S(=O)(c1ccc(NC(=S)NN=C(C2CC2)C2CC2)cc1)N1CCOCC1	inconclusive: 35.5 µM [inhibitor, single point]	–
CC(=O)OC[C@@]1(O)C[C@]23CCC4c5ccoc5CC[C@@]4(C)C2CCC1C3 (stereo not given in full)	–	inactive: -5.17%
COC(=O)c1cccc([N+](=O)[O-])c1CN1CCCC(C(N)=O)C1 (stereo not given)	inconclusive: 39.8 µM [inhibitor, single point]	–
C/C(=N/NC(=O)c1cccs1)c1cccs1	–	inactive: -0.471%
C(=N\Nc1nc2ccccc2s1)/c1ccccn1	inconclusive: 39.8 µM [inhibitor, single point]	–
COc1ccc2[nH]c3ccccc3c2c1	inconclusive: 28.2 µM [inhibitor, partial curve]	–
COc1cc(-c2nc3ccc4ccccc4c3c3c2CCC3)cc(OC)c1OC	inconclusive: 25.1 µM [inhibitor, partial curve]	–
CCN(CC)CCNc1ncnc2c1sc1nc(N3CCOCC3)c3c(c12)CC(C)(C)SC3	inconclusive: 39.8 µM [inhibitor, single point]	–
